Measured values reported in patent US7423058B2, “Inhibitors of hepatitis C virus NS3 protease” (Schering Corporation, priority 2004, dated 2008).

molecular target: Recombinant heterodimeric HCV NS3/NS4A protease (strain 1a) (Hepatitis C virus genotype 1a, UniProt P27958); test: Spectrophotometric assay for HCV protease inhibitory activity (chromogenic ester substrates); format: biochemical; details: Table 6; read-out: Ki* range

Row | Compound | Ki [nM]
1 | CC1(C)[C@@H]2[C@@H](C(=O)NC(CC3CC3)C(=O)C(N)=O)N(C(=O)[C@@H](NC(=O)NC3(Cc4ccncc4)CCCCC3)C3CCCCC3)C[C@@H]21 (stereo partly shown) [compound 4955] | < 75
2 | CC1CCCCC1(Cc1ccccc1)NC(=O)N[C@H](C(=O)N1C[C@H]2[C@@H]([C@H]1C(=O)NC(CC1CC1)C(=O)C(N)=O)C2(C)C)C(C)(C)C (stereo partly shown) [compound 4956] | < 75
3 | CC(C)(C)[C@H](NC(=O)NC1(Cc2ccccc2)CC2CCC1CC2)C(=O)N1C[C@H]2[C@@H]([C@H]1C(=O)NC(CC1CC1)C(=O)C(N)=O)C2(C)C (stereo partly shown) [compound 4957] | < 75
4 | CC1(C)[C@@H]2[C@@H](C(=O)NC(CC3CC3)C(=O)C(N)=O)N(C(=O)[C@@H](NC(=O)NC3(Cc4cccc(O)c4)CCCCC3)C3Cc4ccccc4C3)C[C@@H]21 (stereo partly shown) [compound 4958] | < 75
5 | C=CCNC(=O)C(=O)C(CCC)NC(=O)[C@@H]1[C@@H]2[C@H](CN1C(=O)[C@@H](NC(=O)NC1(Cc3nccs3)CCCCC1)C(C)(C)C)C2(C)C (stereo partly shown) [compound 4959] | < 75
6 | CC1CCCC(Cc2ccccc2)(NC(=O)N[C@H](C(=O)N2C[C@H]3[C@@H]([C@H]2C(=O)NC(CC2CC2)C(=O)C(N)=O)C3(C)C)C(C)(C)C)C1 (stereo partly shown) [compound 4960] | < 75
7 | CCCCC(NC(=O)[C@@H]1[C@@H]2[C@H](CN1C(=O)[C@@H](NC(=O)NC1(Cc3ccccn3)CCCCC1)C(C)(C)C)C2(C)C)C(=O)C(N)=O (stereo partly shown) [compound 4962] | 76 to 250
8 | CC(C)(C)[C@H](NC(=O)N[C@H](Cc1ccccc1)C(C)(C)C)C(=O)N1C[C@H]2[C@@H]([C@H]1C(=O)NC(CC1CC1)C(=O)C(N)=O)C2(C)C (stereo partly shown) [compound 4964] | 76 to 250
9 | CC(C)(C)[C@H](NC(=O)NC1(Cc2ccccn2)CCCCC1)C(=O)N1C[C@H]2[C@@H]([C@H]1C(=O)NC(CC1CC1)C(=O)C(N)=O)C21CC1 (stereo partly shown) [compound 4965] | 76 to 250
10 | CCCC(NC(=O)[C@@H]1[C@@H]2[C@H](CN1C(=O)[C@@H](NC(=O)NC1(Cc3ccccn3)CCCCC1)C(C)(C)C)C2(C)C)C(=O)C(N)=O (stereo partly shown) [compound 4966] | 76 to 250
11 | CC(C)(C)[C@H](NC(=O)NC1(Cc2ccc(OCc3ccccc3)c(OCc3ccccc3)c2)CCCCC1)C(=O)N1C[C@H]2[C@@H]([C@H]1C(=O)NC(CC1CC1)C(=O)C(N)=O)C2(C)C (stereo partly shown) [compound 4967] | 76 to 250
12 | C=CCNC(=O)C(=O)C(CC1CC1)NC(=O)[C@@H]1[C@@H]2[C@H](CN1C(=O)[C@@H](NC(=O)NC1(Cc3nccs3)CCCCC1)C(C)(C)C)C2(C)C (stereo partly shown) [compound 4968] | 76 to 250
13 | C=CCNC(=O)C(=O)C(CCC)NC(=O)[C@@H]1[C@@H]2[C@H](CN1C(=O)[C@@H](NC(=O)N[C@H](Cc1ccccc1)C(C)(C)C)C(C)(C)C)C2(C)C (stereo partly shown) [compound 4969] | 76 to 250
14 | CC(C)(C)[C@H](NC(=O)NC1(Cc2cccc(OCc3ccccc3)c2)CCCCC1)C(=O)N1C[C@H]2[C@@H]([C@H]1C(=O)NC(CC1CC1)C(=O)C(N)=O)C21CC1 (stereo partly shown) [compound 4970] | 76 to 250
15 | C#CCCC(NC(=O)[C@@H]1[C@H]2CC(C)(C)O[C@H]2CN1C(=O)[C@@H](NC(=O)NC1(Cc2ccccc2)CCCCC1)C(C)(C)C)C(=O)C(=O)NCC=C (stereo partly shown) [compound 4971] | 76 to 250
16 | C=CCNC(=O)C(=O)C(CCCC)NC(=O)[C@@H]1[C@@H]2[C@H](CN1C(=O)[C@@H](NC(=O)N[C@H](Cc1nccs1)C(C)C)C(C)(C)C)C2(C)C (stereo partly shown) [compound 4972] | 76 to 250
17 | C=CCNC(=O)C(=O)C(CCC)NC(=O)[C@@H]1[C@@H]2[C@H](CN1C(=O)[C@@H](NC(=O)N[C@H](Cc1nccs1)C(C)C)C(C)(C)C)C2(C)C (stereo partly shown) [compound 4973] | 76 to 250
18 | CC(=O)N1CCCC(Cc2ccccc2)(NC(=O)N[C@H](C(=O)N2C[C@H]3[C@@H]([C@H]2C(=O)NC(CC2CCC2)C(=O)C(N)=O)C3(C)C)C(C)(C)C)C1 (stereo partly shown) [compound 4975] | 76 to 250
19 | CC1(C)C[C@H]2[C@H](CN(C(=O)[C@@H](NC(=O)NC3(Cc4ccc(O)cc4)CCCCC3)C3CCCCC3)[C@@H]2C(=O)NC(CC2CC2)C(=O)C(N)=O)O1 (stereo partly shown) [compound 4976] | 76 to 250
20 | CC1(C)[C@@H]2[C@@H](C(=O)NC(CC3CC3)C(=O)C(N)=O)N(C(=O)[C@@H](NC(=O)NC3(Cc4cccc(OCc5ccccc5)c4)CCCCC3)C3CCCCC3)C[C@@H]21 (stereo partly shown) [compound 4977] | 76 to 250
21 | CC(C)(C)OC(=O)N1CCCC(Cc2ccccc2)(NC(=O)N[C@H](C(=O)N2C[C@H]3[C@@H]([C@H]2C(=O)NC(CC2CC2)C(=O)C(N)=O)C3(C)C)C(C)(C)C)C1 (stereo partly shown) [compound 4978] | 76 to 250
22 | CC(=O)N1CCCC(Cc2ccccc2)(NC(=O)N[C@H](C(=O)N2C[C@H]3[C@@H]([C@H]2C(=O)NC(CC2CC2)C(=O)C(N)=O)C3(C)C)C(C)(C)C)C1 (stereo partly shown) [compound 4979] | 76 to 250
23 | CC(C)(C)[C@H](NC(=O)NC1(Cc2ccccn2)CCCN(S(C)(=O)=O)C1)C(=O)N1C[C@H]2[C@@H]([C@H]1C(=O)NC(CC1CC1)C(=O)C(N)=O)C2(C)C (stereo partly shown) [compound 4980] | 76 to 250
24 | COC1CCC(Cc2ccccc2)(NC(=O)N[C@H](C(=O)N2C[C@H]3[C@@H]([C@H]2C(=O)NC(CC2CC2)C(=O)C(N)=O)C3(C)C)C(C)(C)C)CC1 (stereo partly shown) [compound 4981] | 76 to 250
25 | CC(C)(C)[C@H](NC(=O)NC1(Cc2cccc(OCc3ccccc3)c2)CCCCC1)C(=O)N1C[C@H]2[C@@H]([C@H]1C(=O)NC(CC1CC1)C(=O)C(N)=O)C21CCCC1 (stereo partly shown) [compound 4982] | 76 to 250
26 | CC1(C)[C@@H]2[C@@H](C(=O)NC(CC3CC3)C(=O)C(N)=O)N(C(=O)[C@@H](NC(=O)NC3(Cc4cccc(OCc5ccccc5)c4)CCCCC3)C3Cc4ccccc4C3)C[C@@H]21 (stereo partly shown) [compound 4983] | 76 to 250

same assay, conditions: Table 8; read-out: Ki*

Row | Compound | Ki [nM]
27 | CC(C)[C@H](NC(=O)N[C@H](C(=O)N1C[C@H]2[C@@H]([C@H]1C(=O)NC(CC1CC1)C(=O)C(N)=O)C2(C)C)C(C)(C)C)C(=O)c1ccccc1 (stereo partly shown) [drawing 1470] | 5
28 | CC(C)(C)[C@H](NC(=O)N[C@H](C(=O)C1CC1)C1CCCCC1)C(=O)N1C[C@H]2[C@@H]([C@H]1C(=O)NC(CC1CC1)C(=O)C(N)=O)C2(C)C (stereo partly shown) [drawing 1471] | 8
29 | CC(C)[C@H](NC(=O)N[C@H](C(=O)N1C[C@H]2[C@@H]([C@H]1C(=O)NC(CC1CCC1)C(=O)C(N)=O)C2(C)C)C(C)(C)C)C(=O)C1CC1 (stereo partly shown) [drawing 1472] | 15
30 | CC(C)[C@H](NC(=O)N[C@H](C(=O)N1C[C@H]2[C@@H]([C@H]1C(=O)NC(CC1CC1)C(=O)C(N)=O)C2(C)C)C(C)(C)C)C(=O)OC(C)(C)C (stereo partly shown) [drawing 1474] | 22
31 | C=CCNC(=O)C(=O)C(CCC)NC(=O)[C@@H]1[C@@H]2[C@H](CN1C(=O)[C@@H](NC(=O)N[C@H](C(=O)OCc1ccccc1)C1CCCC1)C(C)(C)C)C2(C)C (stereo partly shown) [drawing 1475] | 30
32 | CC1(C)[C@@H]2[C@@H](C(=O)NC(CC3CC3)C(=O)C(N)=O)N(C(=O)[C@@H](NC(=O)NC3(Cc4cccnc4)CCCCC3)C3CCCCC3)C[C@@H]21 (stereo partly shown) [drawing 1477] | 14
33 | CC(C)(C)[C@H](NC(=O)NC1(Cc2nccs2)CCCCC1)C(=O)N1C[C@H]2[C@@H]([C@H]1C(=O)NC(CC1CCC1)C(=O)C(N)=O)C2(C)C (stereo partly shown) [drawing 1478] | 13
34 | CC(C)[C@H](NC(=O)N[C@H](C(=O)N1C[C@H]2[C@@H]([C@H]1C(=O)NC(CC1CC1)C(=O)C(N)=O)C2(C)C)C(C)(C)C)C(=O)C1CC1 (stereo partly shown) [drawing 1479] | 7
35 | C#CCCC(NC(=O)[C@@H]1[C@@H]2[C@H](CN1C(=O)[C@@H](NC(=O)N[C@H](C(=O)C1CC1)C1CCCCC1)C(C)(C)C)C2(C)C)C(=O)C(=O)NCC=C (stereo partly shown) [drawing 1480] | 9
36 | C#CCCC(NC(=O)[C@@H]1[C@@H]2[C@H](CN1C(=O)[C@@H](NC(=O)N[C@H](C(=O)c1ccccc1)C(C)C)C(C)(C)C)C2(C)C)C(=O)C(=O)NCC=C (stereo partly shown) [drawing 1482] | 13
37 | CC(C)(C)[C@H](NC(=O)NC1(C(=O)OCc2ccccc2)CCCCC1)C(=O)N1C[C@H]2[C@@H]([C@H]1C(=O)NC(CC1CC1)C(=O)C(N)=O)C2(C)C (stereo partly shown) [drawing 1483] | 51
